The full ranking holds about 18,000 sequences; the median of “TetR repression strength (sort-seq, GFP reporter)” is about 0.23, and the highest 2% start at about 0.68. The list shows a part of the results.
Target: TetR (class B, Tn10) (UniProt P04483)
Assay: TetR repression strength (sort-seq, GFP reporter) (relative to tetO2 = 1); higher = stronger repression
Conditions: E. coli
In short: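 Escherichia coli SIG10-MAX cells carried a low-copy plasmid library in which eight operator positions were randomized between a constitutive promoter and sfGFP, and TetR was expressed constitutively. After 5 h of growth at 37 °C in LB with 50 µg/mL chloramphenicol, 10^6 cells were FACS-sorted into 13 fluorescence bins, and each bin was Illumina-sequenced. Repression strength was the top bin index plus one minus the read-weighted mean bin, divided by the value for the unaltered operator. Across three independent transformations, only library members with ≥30 reads in every replicate and a CV ≤0.5 were averaged.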

UniProt P04483, sequence (P04483 whole entry): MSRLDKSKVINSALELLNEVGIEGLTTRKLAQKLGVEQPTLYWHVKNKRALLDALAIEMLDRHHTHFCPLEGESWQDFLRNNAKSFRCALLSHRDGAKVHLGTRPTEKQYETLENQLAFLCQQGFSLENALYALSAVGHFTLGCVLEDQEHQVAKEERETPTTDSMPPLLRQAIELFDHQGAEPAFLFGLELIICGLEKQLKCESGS

Row | Sequence | TetR repression strength
1 | TCCCGATGAGTACGCGAGA | 0.0789
2 | TCCCTGTTAGTAGGTGAGA | 0.115
3 | TCCCAAAAAGTCCTCGAGA | 0.374
4 | TCCCGCACAGTGAGGGAGA | 0.135
5 | TCCCGGGAAGTTGAGGAGA | 0.228
6 | TCCCCGTTAGTGCATGAGA | 0.258
7 | TCCCGCCGAGTTGTAGAGA | 0.276
8 | TCCCATATAGTTTAAGAGA | 0.207
9 | TCCCCGGCAGTGGCTGAGA | 0.293
10 | TCCCGCTCAGTGTTCGAGA | 0.342
11 | TCCCTCACAGTCAGTGAGA | 0.302
12 | TCCCTCATAGTCAATGAGA | 0.262
13 | TCCCCCCTAGTCACAGAGA | 0.338
14 | TCCCAGCTAGTGAGTGAGA | 0.716
15 | TCCCCAACAGTAATTGAGA | 0.307
16 | TCCCTCATAGTGGGAGAGA | 0.106
17 | TCCCTCCCAGTGGCAGAGA | 0.291
18 | TCCCAAGGAGTGGTGGAGA | 0.227
19 | TCCCCTTGAGTCGGCGAGA | 0.0238
20 | TCCCGATAAGTAGAAGAGA | 0.585
21 | TCCCTGGTAGTAGATGAGA | 0.257
22 | TCCCGTAAAGTGGCGGAGA | 0.166
23 | TCCCCATTAGTAGGAGAGA | 0.0948
24 | TCCCGGGAAGTCCGGGAGA | 0.115
25 | TCCCGGTAAGTAAATGAGA | 0.364
26 | TCCCCAGAAGTTGCTGAGA | 0.294

Row | Sequence | TetR repression strength
27 | TCCCCGTCAGTTTAAGAGA | 0.231
28 | TCCCCAGTAGTGAGCGAGA | 0.239
29 | TCCCTTAGAGTTATGGAGA | 0.486
30 | TCCCCTGAAGTGTGTGAGA | 0.468
31 | TCCCGACTAGTTGACGAGA | 0
32 | TCCCGGCAAGTGAAAGAGA | 0.197
33 | TCCCCGTCAGTGATGGAGA | 0.158
34 | TCCCTAACAGTCACGGAGA | 0.06
35 | TCCCACATAGTAGTTGAGA | 0.248
36 | TCCCTTGAAGTGATAGAGA | 0.627
37 | TCCCAGCCAGTCGGCGAGA | 0.316
38 | TCCCGGTGAGTAAGCGAGA | 0.226
39 | TCCCATATAGTGGGAGAGA | 0.103
40 | TCCCAGAAAGTTTATGAGA | 0.157
41 | TCCCTTGAAGTTATTGAGA | 0.218
42 | TCCCGACGAGTAGGAGAGA | 0.123
43 | TCCCTCGGAGTTTTCGAGA | 0.41
44 | TCCCTGTCAGTAGTGGAGA | 0.329
45 | TCCCCGCGAGTATCTGAGA | 0.207
46 | TCCCTTTTAGTAATCGAGA | 0.0739
47 | TCCCGTGCAGTTTCGGAGA | 0.185
48 | TCCCCCCCAGTTGATGAGA | 0.304
49 | TCCCCCCGAGTCGATGAGA | 0.556
50 | TCCCAGTAAGTTCCTGAGA | 0.136
51 | TCCCTGCGAGTGATGGAGA | 0.18
52 | TCCCAGACAGTAAGAGAGA | 0.161

Row | Sequence | TetR repression strength
53 | TCCCGGCTAGTATAGGAGA | 0.0889
54 | TCCCGGAGAGTATTCGAGA | 0.115
55 | TCCCTGGCAGTCGAGGAGA | 0.422
56 | TCCCTTGAAGTGGTAGAGA | 0.141
57 | TCCCCCGTAGTGAGCGAGA | 0.381
58 | TCCCGCTGAGTGGGTGAGA | 0.281
59 | TCCCACTGAGTCGATGAGA | 0.403
60 | TCCCGAGTAGTACCGGAGA | 0.239
61 | TCCCCTGGAGTTTGGGAGA | 0.286
62 | TCCCTACGAGTGATCGAGA | 0.243
63 | TCCCGTGCAGTGGCCGAGA | 0.0825
64 | TCCCAGCAAGTGTTTGAGA | 0.172
65 | TCCCGACGAGTGGGCGAGA | 0.0789
66 | TCCCACATAGTAGGAGAGA | 0.21
67 | TCCCGACCAGTTCAAGAGA | 0.357
68 | TCCCTTGAAGTGCGTGAGA | 0.185
69 | TCCCTGTTAGTCCACGAGA | 0.605
70 | TCCCCAGCAGTTGTCGAGA | 0.568
71 | TCCCCTTGAGTATTTGAGA | 0.346
72 | TCCCGTCAAGTGCCGGAGA | 0.325
73 | TCCCGTCTAGTTTGTGAGA | 0.784
74 | TCCCTAGGAGTAAGTGAGA | 0.256
75 | TCCCAGAGAGTGGGCGAGA | 0.209
76 | TCCCGGACAGTTGTGGAGA | 0.209
77 | TCCCAAGGAGTGAAGGAGA | 0.0263
78 | TCCCTTTCAGTGAGTGAGA | 0.488

Row | Sequence | TetR repression strength
79 | TCCCGCATAGTAGATGAGA | 0.207
80 | TCCCACTCAGTTGTTGAGA | 0.303
81 | TCCCTAGGAGTTATCGAGA | 0.0601
82 | TCCCTAGCAGTTCTGGAGA | 0.161
83 | TCCCTCCGAGTATGGGAGA | 0.302
84 | TCCCATTTAGTTTCGGAGA | 0.21
85 | TCCCAAGGAGTGGGTGAGA | 0.185
86 | TCCCTAGCAGTGATAGAGA | 0.858
87 | TCCCTCTGAGTGTCTGAGA | 0.34
88 | TCCCGTTCAGTGTTAGAGA | 0.596
89 | TCCCCCGGAGTGTACGAGA | 0.212
90 | TCCCAGTAAGTTAGTGAGA | 0.33
91 | TCCCGACCAGTGGGGGAGA | 0.219
92 | TCCCACTTAGTGTCCGAGA | 0.195
93 | TCCCCAGCAGTCATTGAGA | 0.37
94 | TCCCTCAAAGTCGTTGAGA | 0.312
95 | TCCCCTTGAGTAGTGGAGA | 0.153
96 | TCCCGTCAAGTTTCTGAGA | 0.104
97 | TCCCCGCGAGTCACGGAGA | 0.201
98 | TCCCTGAAAGTCGTGGAGA | 0.0754
99 | TCCCAAATAGTGTGTGAGA | 0.241
100 | TCCCCTCGAGTGGTCGAGA | 0.218
101 | TCCCGGAGAGTGAGAGAGA | 0.408
102 | TCCCGCCAAGTGGGAGAGA | 0.161
103 | TCCCTTCTAGTTAATGAGA | 0.395
104 | TCCCGTGAAGTGGGCGAGA | 0.0935

Row | Sequence | TetR repression strength
105 | TCCCTTCCAGTAGTGGAGA | 0.0917
106 | TCCCGAGAAGTACGAGAGA | 0.294
107 | TCCCGTGTAGTTACGGAGA | 0.187
108 | TCCCCCTTAGTTTGTGAGA | 0.296
109 | TCCCCGCCAGTTAGTGAGA | 0.225
110 | TCCCTTCAAGTGACAGAGA | 0.494
111 | TCCCACTTAGTGTGTGAGA | 0.107
112 | TCCCTATTAGTTGATGAGA | 0.248
113 | TCCCGGACAGTCCGGGAGA | 0.304
114 | TCCCTGCTAGTACGTGAGA | 0.481
115 | TCCCGCAAAGTCCGGGAGA | 0.108
116 | TCCCGTGGAGTTGCCGAGA | 0.227
117 | TCCCATGAAGTGCGCGAGA | 0.0264
118 | TCCCGTCCAGTCATCGAGA | 0.0877
119 | TCCCGGCAAGTATTGGAGA | 0.425
120 | TCCCCTTTAGTGTATGAGA | 0.287
121 | TCCCGTCTAGTCGCGGAGA | 0.211
122 | TCCCGAGTAGTGTCCGAGA | 0.17
123 | TCCCATGAAGTGTCAGAGA | 0.381
124 | TCCCTTTAAGTGGGCGAGA | 0.274
125 | TCCCCTATAGTGGGGGAGA | 0.109
126 | TCCCTAGTAGTAGAGGAGA | 0.126
127 | TCCCGGAGAGTCAGTGAGA | 0.242
128 | TCCCAAAAAGTGGTGGAGA | 0.203
129 | TCCCGGGTAGTGCGAGAGA | 0.273
130 | TCCCTTGTAGTGAGCGAGA | 0.138

Reference: a collection of fitness landscapes (doi:10.1038/s41467-024-54723-y)
